Experimental data published in patent US5409898A, “Compositions and methods for treating infections caused by organisms sensitive to β-lactam antibiotics” (priority 1994, dated 1995).
In brackets after ≈: the same amount, converted by molar mass. Part of at least one peptide drawing is inferred or uncertain, most often the ends. Some entries repeat one wording, which the source may state once for all of them. Non-standard residues stand in square brackets, D forms with d. Residues, ends and D or L forms follow the SMILES beside them. No end group written: not given here. Orn = NCCC[C@H](N)C(=O)O

How the values were obtained:
[1] = system: E. COLI A645 (ATCC 25922); assay: In vitro bactericidal activity (ID50) of cationic oligopeptides, serum bactericidal assay; format: cell-based, Escherichia coli; conditions: for ID50 CEFEPIME NHS (1/5 MIC cefepime) / ID50 CEFEPIME HI-NHS (1/5 MIC cefepime): 1/5 MIC cefepime (footnote 2); for ID50 CEFEPIME HI-NHS (1/5 MIC cefepime) / ID50 NO CEFEPIME HI-NHS / ID50 1/4 MIC CEFEPIME HI-NHS: heat inactivated NHS; for dependence of bactericidal activity on complement: complement present in the screening medium; for activity: all test conditions of Table 2
Description: Cells were diluted without washing to 5×10^4 cells/ml gelatin-veronel buffer (GBV++) and 0.05 ml was added to serum (see section 7.1.3.) in a 1.5 ml Eppendorf vial. For those bacterial cells pregrown in cefepime, the same amount of cefepime that was present during growth was added for both the preparation and examination of bactericidal activity. […] Peptides were diluted in deionized water to make a stock solution of 2 mg/ml and added to the reaction vial to give the appropriate concentration. The total reaction volume was 0.25 ml.

E. coli H16 = assay: In vivo protection of neutropenic mice from systemic E. coli H16 infection (C-13 peptide analogs); conditions: Fisher Exact test
Excerpt: The ability of C-13 peptide analogs and cefepime combinations to protect mice from a lethal infection of E. coil was examined. Mice were made neutropenic by an injection of cyclophosphamide and then challenged with E. coli. Mice were then divided into four groups: (1) mice that were given PBS; (2) were given C-13 peptide analogs only; (3) were given cefepime only; and (4) were given a combination of C-13 peptide analogs and cefepime.
Male CrL:CF1 mice were made neutropenic five days prior to bacterial challenge. Neutropenia was induced by subcutaneous injection of 250 mg/kg Cytoxan (cyclophosphamide). The mice were challenged with either 2×10^4 E. coli H16 (Table 4) or 5×10^4 A645AP by intraperitoneal injection. Mice were divided into four treatment groups: (1) PBS; (2) C-13 peptide analog (15 mg/kg); (3) cefepime (0.1 mg/kg); (4) a combination treatment of cefepime and C-13 peptide analog (0.1 mg/kg cefepime and 15 mg/kg C-13 peptide analog) that were combined prior to injection. All injections were made in PBS (0.2 ml) and were administered intramuscularly with each injection in separate legs, one and 3.5 hours after bacterial challenge. The survival of the mice was monitored for ten days and the results analyzed by the Fisher Exact test.

A586 = assay: Bactericidal activity (ID50) of analog G, strain A586; format: cell-based, Staphylococcus aureus; conditions: 40 % sera
M009 = assay: Bactericidal activity (ID50) of analog G, strain M009; format: cell-based, Pseudomonas aeruginosa; conditions: 20 % sera
E. coli A011 = assay: Bactericidal activity (ID50) of analog G, strain A011; format: cell-based, Escherichia coli; conditions: 10 % sera
[2] = system: Klebsiella pneumoniae C329 (ATCC 13883); assay: Bactericidal activity (ID50) of analog G, strain C329; format: cell-based; conditions: 1 0 % sera
E. coli ATCC 25922 = assay: Serum bactericidal assay, C-13 peptide of PF-4 with cefepime; format: cell-based, Escherichia coli

Compound	dependence of bactericidal activity on complement [1]	ID50 NO CEFEPIME NHS [1]	ID50 NO CEFEPIME HI-NHS [1]	ID50 1/4 MIC CEFEPIME NHS [1]	ID50 1/4 MIC CEFEPIME HI-NHS [1]	other results
CC(C)C[C@H](NC(=O)[C@H](C)N)C(=O)N[C@@H](Cc1ccc(O)cc1)C(=O)N[C@@H](CCCN)C(=O)N[C@@H](CCCN)C(=O)N[C@@H](CC(C)C)C(=O)N[C@@H](CC(C)C)C(=O)N[C@@H](CCCN)C(=O)N[C@@H](CCCN)C(=O)N[C@@H](CC(C)C)C(=O)N[C@@H](CC(C)C)C(=O)N[C@@H](CCCN)C(=O)N[C@@H](CO)C(=O)N[C@@H](C)C(=O)N[C@@H](CCCN)C(=O)N[C@@H](CCCN)C(=O)N[C@@H](CC(C)C)C(=O)NCC(=O)O [analog II, Ala--Leu--Tyr--Orn--Orn--Leu--Leu--Orn--Orn--Leu--Leu--Orn--Ser--Ala--Orn--Orn--Leu--Gly] (H-ALY[Orn][Orn]LL[Orn][Orn]LL[Orn]SA[Orn][Orn]LG-OH)	require complement or gave greatly improved bactericidal results when complement was present	1 µg/mL (≈ 0.514 µM)	47 µg/mL (≈ 24.2 µM)			ID50 CEFEPIME NHS (1/5 MIC cefepime) [1]: < 1 µg/mL; ID50 CEFEPIME HI-NHS (1/5 MIC cefepime) [1]: 43 µg/mL (≈ 22.1 µM); protection from systemic E. coli H16 infection (E. coli H16): failed to provide a significant level of protection
CC(C)C[C@@H](NC(=O)[C@@H](C)N)C(=O)N[C@H](Cc1ccc(O)cc1)C(=O)N[C@H](CCCCN)C(=O)N[C@H](CCCCN)C(=O)N[C@H](CC(C)C)C(=O)N[C@H](CC(C)C)C(=O)N[C@H](CCCCN)C(=O)N[C@H](CCCCN)C(=O)N[C@H](CC(C)C)C(=O)N[C@H](CC(C)C)C(=O)N[C@H](CCCCN)C(=O)N[C@H](CO)C(=O)N[C@H](C)C(=O)N[C@H](CCCCN)C(=O)N[C@H](CCCCN)C(=O)N[C@H](CC(C)C)C(=O)NCC(=O)O [analog X, dAla--dLeu--dTyr--dLys--dLys--dLeu--dLeu--dLys--dLys--dLeu--dLeu--dLys--dSer--dAla--dLys--dLys--dLeu--Gly] (H-[dA][dL][dY][dK][dK][dL][dL][dK][dK][dL][dL][dK][dS][dA][dK][dK][dL]G-OH)	require complement or gave greatly improved bactericidal results when complement was present	4 µg/mL (≈ 1.96 µM)	> 50 µg/mL			bactericidal cell killing in combination with antibiotic [1]: to a lesser extent; protection from systemic E. coli H16 infection (E. coli H16): failed to provide a significant level of protection
AKKLAKLYKKLLKKLLKSAKKLG [analog J, Ala--Lys--Lys--Leu--Ala--Lys--Leu--Tyr--Lys--Lys--Leu--Leu--Lys--Lys--Leu--Leu--Lys--Ser--Ala--Lys--Lys--Leu--Gly]	require complement or gave greatly improved bactericidal results when complement was present	1 µg/mL	> 8 µg/mL	1 µg/mL	4 µg/mL	
ALYKKIIKKLLESAKKLG [analog H, Ala--Leu--Tyr--Lys--Lys--Ile--Ile--Lys--Lys--Leu--Leu--Glu--Ser--Ala--Lys--Lys--Leu--Gly]	require complement or gave greatly improved bactericidal results when complement was present	> 100 µg/mL	> 100 µg/mL	10 µg/mL	> 100 µg/mL	bactericidal cell killing in combination with antibiotic [1]: improved bactericidal cell killing
ALYKKLLKKLLESAKKLG [analog F, Ala--Leu--Tyr--Lys--Lys--Leu--Leu--Lys--Lys--Leu--Leu--Glu--Ser--Ala--Lys--Lys--Leu--Gly]	require complement or gave greatly improved bactericidal results when complement was present	70 µg/mL	> 200 µg/mL	10 µg/mL	90 µg/mL	bactericidal cell killing in combination with antibiotic [1]: improved bactericidal cell killing; protection from systemic E. coli H16 infection (E. coli H16): failed to provide a significant level of protection
ALYKKLLKKLLKFAKKFG [analog P, Ala--Leu--Tyr--Lys--Lys--Leu--Leu--Lys--Lys--Leu--Leu--Lys--Phe--Ala--Lys--Lys--Phe--Gly]		10 µg/mL	10 µg/mL	10 µg/mL	10 µg/mL	
ALYKKLLKKLLKKAKKLG [analog KK, Ala--Leu--Tyr--Lys--Lys--Leu--Leu--Lys--Lys--Leu--Leu--Lys--Lys--Ala--Lys--Lys--Leu--Gly]	require complement or gave greatly improved bactericidal results when complement was present	1 µg/mL	> 50 µg/mL	< 1 µg/mL	> 50 µg/mL	
ALYKKLLKKLLKSAKKLG [analog G, Ala--Leu--Tyr--Lys--Lys--Leu--Leu--Lys--Lys--Leu--Leu--Lys--Ser--Ala--Lys--Lys--Leu--Gly]	require complement or gave greatly improved bactericidal results when complement was present	4 µg/mL	> 200 µg/mL			increase in antibacterial activity ([1]; in NHS with cefepime): 80 fold; bactericidal cell killing in combination with antibiotic [1]: to a lesser extent; ID50 NO CEFEPIME HI-NHS (A586; HI-NHS): > 200 µg/mL; ID50 NO CEFEPIME NHS (A586; NHS): > 200 µg/mL; protection from systemic E. coli H16 infection (E. coli H16): failed to provide a significant level of protection; ID50 NO CEFEPIME HI-NHS (M009; strain M009, HI-NHS): 120 µg/mL; ID50 NO CEFEPIME NHS (M009; strain M009, antibiotic resistant, NHS): 2 µg/mL; ID50 CEFEPIME HI-NHS (E. coli A011; 1/4 MIC cefepime, HI-NHS): 80 µg/mL; ID50 CEFEPIME NHS (E. coli A011; 1/4 MIC cefepime, NHS): 2 µg/mL; ID50 NO CEFEPIME HI-NHS (E. coli A011; no cefepime, HI-NHS): 80 µg/mL; ID50 NO CEFEPIME NHS (E. coli A011; no cefepime, NHS): 2 µg/mL; ID50 CEFEPIME HI-NHS ([2]; 1/8 MIC cefepime, HI-NHS): 50 µg/mL; ID50 CEFEPIME NHS ([2]; 1/8 MIC cefepime, NHS): 1 µg/mL; ID50 NO CEFEPIME HI-NHS ([2]; no cefepime, HI-NHS): 80 µg/mL; ID50 NO CEFEPIME NHS ([2]; no cefepime, NHS): 1 µg/mL
ALYRRLLRRLLRSARRLG [analog HH, Ala--Leu--Tyr--Arg--Arg--Leu--Leu--Arg--Arg--Leu--Leu--Arg--Ser--Ala--Arg--Arg--Leu--Gly]		> 50 µg/mL	> 50 µg/mL			ID50 CEFEPIME NHS (1/5 MIC cefepime) [1]: > 50 µg/mL; ID50 CEFEPIME HI-NHS (1/5 MIC cefepime) [1]: > 50 µg/mL
KWKLYKKLLKKLLKSAKKLG [analog N, Lys--Trp--Lys--Leu--Tyr--Lys--Lys--Leu--Leu--Lys--Lys--Leu--Leu--Lys--Ser--Ala--Lys--Lys--Leu--Gly]	require complement or gave greatly improved bactericidal results when complement was present	1 µg/mL	10 µg/mL	1 µg/mL	> 2 µg/mL	
PLKKYIIKKELLS [analog B, Pro--Leu--Lys--Lys--Tyr--Ile--Ile--Lys--Lys--Glu--Leu--Leu--Ser]		> 200 µg/mL	> 200 µg/mL	> 200 µg/mL	> 200 µg/mL	activity [1]: inactive in all test conditions
PLYKKIIKKLLES [C-13, Pro--Leu--Tyr--Lys--Lys--Ile--Ile--Lys--Lys--Leu--Leu--Glu--Ser, reference compound]		> 200 µg/mL	> 200 µg/mL			killing of bacteria not grown with cefepime (E. coli ATCC 25922; 200 μg/ml C-13 peptide, 40% pooled normal human serum): unable to kill; killing of cefepime altered bacteria (E. coli ATCC 25922; 1/5 MIC cefepime, 200 μg/ml C-13 peptide, active 40% pooled normal human serum): able to significantly kill; killing of cefepime altered bacteria (E. coli ATCC 25922; heat inactivated 40% serum, 200 μg/ml C-13 peptide): did not kill
PLYKKPIKKPLES [analog W, Pro--Leu--Tyr--Lys--Lys--Pro--Ile--Lys--Lys--Pro--Leu--Glu--Ser]		> 200 µg/mL	> 200 µg/mL	> 200 µg/mL	> 200 µg/mL	activity [1]: inactive in all test conditions
PLYKPKIIKPKLLES [modified C-13 peptide, Pro-Leu-Tyr-Lys-Pro-Lys-Ile-Ile-Lys-Pro-Lys-Leu-Leu-Glu-Ser]						synergistic effect with cefepime (E. coli ATCC 25922; with cefepime in the presence of normal human sera): a lower or no synergistic effect
